Reference: PubChem BioAssay AID1347165 (National Center for Advancing Translational Sciences (NCATS), 2019)
The campaign covered roughly 220,000 compounds. About 5,700 (2.6%) were called active. Inconclusive results, whose numbers are uncertain, are shown with a selection of clear calls. Calls follow the shape of the dose curve; as a rule, active = well fitted inhibition curve with a large enough effect; inconclusive = small, poorly fitted or top-dose-only effect; inactive = no such curve, though single readings can be large or run the other way. Potencies of inconclusive entries are doubtful fits and often do not repeat.

target: Lysine-specific demethylase 5B (Homo sapiens) (UniProt Q9UGL1); experiment: Primary screen for KDM5B Histone Demethylases FDH-coupled qHTS; settings: FDH-coupled NADH fluorescence (FDH is formaldehyde dehydrogenase); activity change, negative = inhibition: at 57.7 µM (top of the series) unless noted; also: nearly all actives have a fitted effect of over 70% in size; as to activity change, negative = inhibition: 0% is about no effect
In short: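 qHTS format, multiple compound concentrations. Buffer 50 mM HEPES pH 7.5/0.01% Tween-20; 200 nM KDM5BΔAP final; 10 min compound preincubation; substrate-mix levels 12.5 µM peptide, 25 µM α-KG, 0.25 mM NAD⁺; 30 min RT; ΔRFU.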
Potency is read from the fitted curve at half-maximal effect; tags tell the direction and shape of the fitted curve.

Chain of UniProt Q9UGL1 (Q9UGL1 whole entry, looked up): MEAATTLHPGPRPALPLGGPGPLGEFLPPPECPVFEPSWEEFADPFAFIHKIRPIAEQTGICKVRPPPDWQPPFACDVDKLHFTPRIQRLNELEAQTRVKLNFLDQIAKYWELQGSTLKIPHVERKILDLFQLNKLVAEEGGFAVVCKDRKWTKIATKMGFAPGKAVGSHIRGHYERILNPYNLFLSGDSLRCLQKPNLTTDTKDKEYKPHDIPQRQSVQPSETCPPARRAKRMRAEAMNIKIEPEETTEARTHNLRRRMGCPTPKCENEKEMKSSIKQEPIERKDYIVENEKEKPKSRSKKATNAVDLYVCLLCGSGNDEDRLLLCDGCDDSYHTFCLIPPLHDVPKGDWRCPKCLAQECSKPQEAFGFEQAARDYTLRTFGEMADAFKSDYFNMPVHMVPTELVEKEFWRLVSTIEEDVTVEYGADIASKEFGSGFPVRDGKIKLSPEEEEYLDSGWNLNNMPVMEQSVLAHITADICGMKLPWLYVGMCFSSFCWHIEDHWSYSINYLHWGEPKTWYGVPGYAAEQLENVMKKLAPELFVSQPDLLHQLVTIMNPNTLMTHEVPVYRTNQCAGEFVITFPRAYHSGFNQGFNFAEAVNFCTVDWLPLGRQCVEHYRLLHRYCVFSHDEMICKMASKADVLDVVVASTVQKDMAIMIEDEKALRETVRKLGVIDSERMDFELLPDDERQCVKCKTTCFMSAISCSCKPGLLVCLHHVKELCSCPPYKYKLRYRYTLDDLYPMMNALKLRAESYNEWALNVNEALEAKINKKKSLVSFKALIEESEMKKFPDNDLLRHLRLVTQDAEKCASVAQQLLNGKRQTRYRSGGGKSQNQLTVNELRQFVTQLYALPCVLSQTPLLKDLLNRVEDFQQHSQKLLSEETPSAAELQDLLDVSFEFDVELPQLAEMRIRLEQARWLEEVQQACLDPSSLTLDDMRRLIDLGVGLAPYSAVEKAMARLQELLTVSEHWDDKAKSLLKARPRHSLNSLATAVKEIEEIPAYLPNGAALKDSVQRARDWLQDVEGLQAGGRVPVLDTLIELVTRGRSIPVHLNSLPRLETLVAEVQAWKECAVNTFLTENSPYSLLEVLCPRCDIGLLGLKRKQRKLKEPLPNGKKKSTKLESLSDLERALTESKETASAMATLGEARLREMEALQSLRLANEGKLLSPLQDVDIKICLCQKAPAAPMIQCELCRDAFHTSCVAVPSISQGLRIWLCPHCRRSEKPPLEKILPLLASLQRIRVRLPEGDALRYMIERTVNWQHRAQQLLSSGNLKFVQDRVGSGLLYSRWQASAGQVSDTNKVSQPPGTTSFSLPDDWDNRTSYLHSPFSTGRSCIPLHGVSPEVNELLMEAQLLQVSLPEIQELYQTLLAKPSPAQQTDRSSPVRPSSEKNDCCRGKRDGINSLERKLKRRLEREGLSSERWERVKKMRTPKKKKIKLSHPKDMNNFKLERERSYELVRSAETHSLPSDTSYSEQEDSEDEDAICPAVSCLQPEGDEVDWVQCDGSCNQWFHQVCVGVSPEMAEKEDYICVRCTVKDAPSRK

Row | SMILES | Potency | activity change, negative = inhibition
1 | Cc1ccc(CC(=O)NCc2nnc3cc(-c4nc(C)no4)ccn23)cc1 | inconclusive: 15.8 µM [inhibitor, partial curve, poor fit] | –
2 | CC(C)c1nc(CNC(=O)c2ccc(CC3CCCNC3)cc2)cs1 (stereo not given) | inconclusive: 3.16 µM [inhibitor, full curve] | –
3 | Cc1cc(=O)oc2cc(OCC(=O)NC(=O)NC3CCCC3)ccc12 | inconclusive: 20 µM [inhibitor, partial curve, poor fit] | –
4 | CCC1CN(C(=O)N2CCC(C(=O)NCc3ccc(C)o3)CC2)c2cc(C)ccc2O1 (stereo not given) | inconclusive: 44.7 µM [inhibitor, single point] | –
5 | CCOC(=O)c1cc2c(=O)n3ccccc3nc2n(CC2CCCO2)c1=NC(=O)c1cccc(C(F)(F)F)c1 (stereo not given) | inconclusive: 17.8 µM [inhibitor, partial curve, poor fit] | –
6 | Cn1cccc1C(=O)N1CCC(C(=O)N2CCCCCCNC(=O)CC2)CC1 | – | inactive: -2.94%
7 | Cc1cccc(NC(=O)c2cnn(-c3ccccc3)c2-n2cccc2)c1C | inconclusive: 28.2 µM [inhibitor, single point] | –
8 | CCc1nn(CC(=O)NCCC(C)C)c(=O)c2cc3c(OC)cccc3n12 | inconclusive: 35.5 µM [inhibitor, partial curve, poor fit] | –
9 | Cc1ccc(C)c(N2CCN(C(=O)CN3C(=O)COc4ccc(S(=O)(=O)N5CCCCCC5)cc43)CC2)c1 | – | inconclusive: -34.1% [inhibitor]
10 | COc1cccc(/C=N/NC(=S)Nc2cccc(S(=O)(=O)N(C)C)c2)c1 | inconclusive: 39.8 µM [inhibitor, single point] | –
11 | CC(C)(CNC(=O)CC1CCCC1)C(N)=O | – | inactive: -2.2%
12 | Cc1cc(Br)ccc1NC(=O)CCS(=O)(=O)c1cccc2nonc12 | – | inconclusive: -38.2% [inhibitor]
13 | O=C(NCCc1ccccn1)c1cccc(F)c1 | – | inactive: -1.67%
14 | Cc1ccc(-c2cc3c(=O)n(CCNC(=O)c4ccc5ccccc5n4)ccn3n2)c(C)c1 | inconclusive: 39.8 µM [inhibitor, single point] | –
15 | O=C(O)C/C(=C/c1ccc(Cl)cc1)c1nc2ccccc2s1 | – | inactive: -1.89%
16 | CC(Sc1nnc(COc2ccc(Cl)cc2)n1C)C(=O)c1ccc(Cl)cc1 (stereo not given) | – | inactive: 15.7%
17 | COCC(=O)N[C@@H]1CN(Cc2cnn(C)c2C)C[C@H]1CO | inconclusive: 3.16 µM [inhibitor, partial curve, poor fit] | –
18 | COc1cc2c(=O)c(S(=O)(=O)c3ccc(F)cc3)cn(Cc3ccccc3C)c2cc1OC | inconclusive: 35.5 µM [inhibitor, partial curve, poor fit] | –
19 | Cc1ccc(-n2cc(-c3ccccc3)c3c(NC4CCCC4)ncnc32)cc1 | inconclusive: 35.5 µM [inhibitor, single point] | –
20 | O=c1oc2cc(O)ccc2cc1-c1nnc(Nc2ccc(Cl)cc2Cl)s1 | – | inactive: 62.4%
21 | COc1ccc(-c2noc([C@@H]3C[C@H](NC(=O)c4ccc(F)cc4)CN3C)n2)cc1 | inconclusive: 20 µM [inhibitor, partial curve] | –
22 | CC(=O)Nc1ccc(NC(=O)c2cc3n(n2)CC(c2ccc(Cl)cc2)OC3)cc1 (stereo not given) | inconclusive: 35.5 µM [inhibitor, single point] | –
23 | c1cc(Cn2ccc3c(N4CCOCC4)nc(-c4cn[nH]c4)cc32)ccn1 | inconclusive: 25.1 µM [inhibitor, partial curve, poor fit] | –
24 | CCOC(=O)N1CCN(C(=O)C2CCN(C(=O)c3ccccc3C)CC2)CC1 | inconclusive: 2.24 µM [inhibitor, full curve, poor fit] | –

Row | SMILES | Potency | activity change, negative = inhibition
25 | COc1cccc(CNC(=O)c2cc3cccc4c3n2CC(C)S4)c1OC (stereo not given) | inconclusive: 31.6 µM [inhibitor, partial curve, poor fit] | –
26 | O=C(Cn1nc(C(=O)O)c2ccccc2c1=O)Nc1ccccc1Cl | – | inactive: -8.69%
27 | O=C(C1CC1)N1CCC(C(=O)N2CC(OCc3ccccc3)C2)CC1 | inconclusive: 6.31 µM [inhibitor, single point] | –
28 | O=c1n(Cc2ccc3ccccc3n2)nc(C2CCNCC2)n1Cc1ccccc1 | inconclusive: 15.8 µM [inhibitor, partial curve] | –
29 | O=C(Cc1cccnc1)N1CCCC(c2ccccc2)(c2ccccc2)C1 | – | inactive: -4.77%
30 | O=C(Nc1ccc(F)cc1F)c1cc(C2CC2)nn1-c1ccccc1 | – | inactive: -19.1%
31 | COC(=O)C(CC(C)C)NC(=O)CC(c1ccccc1)c1ccccc1 (stereo not given) | – | inactive: 2.28%
32 | COc1ccc(OCc2nc3ccccc3n2C(C)c2ccccc2)cc1 (stereo not given) | inconclusive: 25.1 µM [inhibitor, single point] | –
33 | O=C(Nc1ccc(N2CCOCC2)nc1)c1ccccc1Cl | – | inactive: 27%
34 | O=C(NCc1ccncc1)C1CN(C(=O)c2cc(F)ccc2F)CC12CCOCC2 (stereo not given) | inconclusive: 31.6 µM [inhibitor, single point] | –
35 | O=C(NCc1ccc(Cl)cc1)c1ccc(CSCc2cccc(Cl)c2)o1 | inconclusive: 10 µM [inhibitor, partial curve, poor fit] | –
36 | CCCn1ccnc1CN1C[C@@H](NC(=O)c2ccon2)C[C@H]1C(=O)NCC | inconclusive: 3.55 µM [inhibitor, full curve] | –
37 | CCc1cc(Nc2ccc(OC)cc2OC)n2ncnc2n1 | – | inactive: 6.04%
38 | O=C(NCc1ccccc1)N1CCC(N2C(=O)C3(CCCCC3)C2c2ccncc2)CC1 (stereo not given) | – | inactive: 2.26%
39 | O=C(CCCCCn1c(=O)[nH]c2ccccc2c1=O)NCc1cccc(Cl)c1 | inconclusive: 25.1 µM [inhibitor, partial curve, poor fit] | –
40 | O=C1CC2(CCN(CC3CCCCC3)CC2)Oc2ccccc2N1c1ccccc1 | – | inactive: -11.2%
41 | C[S+](=O)([O-])c1cccc(NC(=O)c2cnc3n2CCN(CCc2ccccc2)CC3)c1 | – | inactive: 11.1%
42 | CCOc1ccc(S(=O)(=O)N2CCN(c3cc(Cl)ccc3Cl)CC2)c2ccccc12 | inconclusive: 6.31 µM [inhibitor, partial curve, poor fit] | –
43 | O=c1[nH]c2ccc(NCc3ccc(-c4cccc(Cl)c4)o3)cc2[nH]1 | inconclusive: 17.8 µM [inhibitor, partial curve, poor fit] | –
44 | N#Cc1ccccc1CNc1cccc(Cl)c1F | – | inactive: 15.3%
45 | CCCCCCc1ccc(OC(=O)c2cncc(Br)c2)cc1 | – | inactive: 26.5%
46 | COc1ccc(C(=O)NCCn2ccn3nc(-c4cc(C)ccc4C)cc3c2=O)cc1OC | – | inactive: -32.1%
47 | COCC(C)NC(=O)CSc1ncnc2sc(-c3ccccc3)cc12 (stereo not given) | inconclusive: 22.4 µM [inhibitor, single point] | –
48 | COc1ccc2c(c1)CN(C(=O)c1ccc(C(F)(F)F)cc1)CC[C@H]1COC(=O)N21 | – | inactive: 2.56% [at 86.2 µM]

Row | SMILES | Potency | activity change, negative = inhibition
49 | Cc1ccc(C(=O)N2CC(C(=O)NC3CCCCC3)C3(CCOCC3)C2)cc1 (stereo not given) | – | inactive: -1.78%
50 | CCN1CCN(C(C)C(=O)NC2CCCCC2)CC1 (stereo not given) | inconclusive: 20 µM [inhibitor, partial curve, poor fit] | –
51 | CCc1ccc(NC(=O)CCS(=O)(=O)c2cc(-c3cc(C)no3)ccc2OC)cc1 | – | inactive: 5.59%
52 | Cc1cccc(Cc2cnc(NC(=O)CCc3nnc(-c4ccsc4)o3)s2)c1Cl | – | inactive: 3.19%
53 | COc1ccc(CN2CCC[C@H]2c2nc(-c3ccc(N(C)C)nc3)no2)c(O)c1 | inconclusive: 31.6 µM [inhibitor, partial curve] | –
54 | O=C(NCc1cccnc1)c1ccc2c(c1)N(Cc1ccccc1F)C(=O)c1ccccc1S2=O (stereo not given) | – | inactive: 20%
55 | COc1ccc(CCNC(=O)c2c(C)noc2-c2cccs2)cc1OC | – | inactive: -13.2%
56 | Cc1ccc(Nc2ncnc3c2cnn3-c2ccccc2)c(C)c1 | inconclusive: 44.7 µM [inhibitor, single point] | –
57 | Cc1nn(C)c(Cl)c1C=O | – | inactive: 20.4%
58 | Cn1nc(-c2ccc(Cl)cc2)c2cc(C(=O)Oc3ccccc3Cl)sc21 | inconclusive: 20 µM [inhibitor, partial curve, poor fit] | –
59 | CC(=O)Oc1c(-c2ccc(NC(=O)c3ccc4c(c3)OCO4)cc2)c(C2CC2)nn1-c1cccc(F)c1 | inconclusive: 31.6 µM [inhibitor, single point] | –
60 | CN1CCc2c([nH]c3ccccc23)C12CCN(C(=O)c1cccn1C)CC2 | inconclusive: 20 µM [inhibitor, partial curve, poor fit] | –
61 | COc1ccc(N2CCN(C(=O)c3c(C)oc4ncnc(N5CCCCC5)c34)CC2)cc1 | inconclusive: 0.794 µM [inhibitor, partial curve, poor fit] | –
62 | O=C(O)C(c1c[nH]c2cc(F)ccc12)N1CCN(c2cccc(Cl)c2)CC1 (stereo not given) | – | inactive: 7.97%
63 | Cc1ccc(/C=C/C(=O)NC2CCc3ccccc32)o1 (stereo not given) | inconclusive: 39.8 µM [inhibitor, single point] | –
64 | O=C(NC1CCc2ccccc21)c1cc2n(n1)CC(c1ccc(Cl)cc1)OC2 (stereo not given) | inconclusive: 14.1 µM [inhibitor, partial curve] | –
65 | O=C(c1cc(-c2ccc(Cl)cc2)on1)N1CCCC1 | – | inactive: 1.51%
66 | CC(C)NS(=O)(=O)c1ccc2c(c1)nc(-c1ccc(CO)o1)n2C(C)C | inconclusive: 17.8 µM [inhibitor, partial curve, poor fit] | –
67 | O=C(O)C(c1c[nH]c2cc(Cl)ccc12)N1CCN(CCNc2cc(=O)oc3ccccc23)CC1 (stereo not given) | – | inactive: -10%
68 | Cc1nn(C)c(C)c1-c1ccnc(NCC2COc3ccccc3O2)n1 (stereo not given) | inconclusive: 31.6 µM [inhibitor, single point] | –
69 | CS(=O)(=O)N1C[C@H]2CCN(C(=O)c3ccc4[nH]ccc4c3)C[C@H]21 | – | inactive: -0.88%
70 | CN(CCOc1ccc(Cl)cc1)Cc1cc(=O)oc2cc(O)c(Cl)cc12 | inconclusive: 25.1 µM [inhibitor, partial curve, poor fit] | –
